Assay results taken from ChEMBL document CHEMBL1156829.
Whole data set: some 5,400 compounds, median “IFI” near 2, cut for the highest 2% near 22. The list shows a part of the results.

Test: NOVARTIS: Inhibition Frequency Index (IFI) - the number of HTS assays where a compound showed > 50% inhibition/induction, expressed as a percentage of the number of assays in which the compound was tested.
Assay type: functional

Row | Compound | IFI [%]
1 | CCCn1nc(Oc2nc(NCC)cc(OC)n2)ccc1=O | 0
2 | O=[N+]([O-])c1ccc(-c2ccc(C=NNc3nc(Nc4ccccc4)nc(Nc4ccccc4)n3)o2)cc1 | 4.65
3 | Cc1cccc(Nc2ccccc2C(=O)OCC(=O)N2CC(=O)Nc3ccccc32)c1C | 4.35
4 | O=C(Nc1ccc(F)cc1)N1CCN(c2ccc3nnc(-c4ccccc4)n3n2)CC1 | 0
5 | CSC1=NC(C)(C)CC2(CC(c3ccc(C)cc3)c3cc(Cl)c(O)cc3O2)N1 (stereo not drawn) | 10.4
6 | COc1cc(OC)c(N(C)C(=O)c2cn(C3CCCC3)c(=O)c3c2c2ccccc2n3C)cc1Cl | 6.67
7 | Cc1cc(C)c(CSC(=N)N)c(C)c1CSC(=N)N | 0
8 | O=C(c1ccncc1)N1N=C(c2c(-c3ccccc3)c3cc(Br)ccc3[nH]c2=O)CC1c1ccccc1 (stereo not drawn) | 4.11
9 | CCOC(=O)c1[nH]c2ccc(C)cc2c1N=NN(C)C | 5.46
10 | O=C(Nc1ccc(Br)cn1)c1ccc(Oc2cc(Oc3cccc(Cl)c3)cc([N+](=O)[O-])c2)cc1 | 0
11 | CCCCCCCCC(=O)Nc1c(C)cccc1C | 0.962
12 | COc1cc(-c2nc(-c3ccccc3)c(-c3ccc(O)cc3)[nH]2)cc(OC)c1O | 0
13 | O=C1NN(c2ccccc2)C(=O)/C1=C1/C(=O)N(Cc2cccc3ccccc23)c2ccccc21 | 0
14 | O=C(O)[C@@H]1C[C@H](CP(=O)(O)O)CCN1 | 0
15 | Cc1ccccc1CNC(=O)c1oc2c(c1C)-c1[nH]ncc1CC2 | 0
16 | Sc1nc2ccc3nsnc3c2[nH]1 | 0
17 | OC(CNCc1ccccc1)Cn1c2ccc(Br)cc2c2cc(Br)ccc21 (stereo not drawn) | 5.26
18 | Cc1ccc(-n2c(SCc3cccc4ccccc34)nc3sc4c(c3c2=O)CCN(C)C4)cc1 | 10
19 | Cc1c(C)n(Cc2ccc(F)cc2)c2ccc(C(=O)NCc3ccco3)cc12 | 6.25
20 | CC(NC(=O)c1cnn2c(C(F)(F)F)cc(-c3ccc(Br)cc3)nc12)c1ccccc1 (stereo not drawn) | 3.23
21 | N=c1c2c(n(Cc3ccccc3)c3c1CCC3)CCCC2 | 7.69
22 | CN(CCCNc1ccnc2cc(Cl)ccc12)C(=O)CSc1ccccc1 | 3.74
23 | CCOC(=O)c1c(C)[n+](-c2ccc(C)cc2)c(CC)c2cc(OC)c(OC)cc12 | 2.29
24 | COc1ccc(NS(=O)(=O)c2cccc(C(=O)Nc3ccccc3[N+](=O)[O-])c2)cc1 | 0
25 | COc1ccc(C(=O)NCCc2ccc(C)cc2)cc1OC1CCN(C(C)=O)CC1 | 0

Row | Compound | IFI [%]
26 | Cc1ccc(-c2cn3c([n+]2-c2ccccc2)SCC3)cc1 | 5.18
27 | COc1ccc2c(c1)c(C)cc[n+]2Cc1ccccc1 | 6.3
28 | Cc1ccc(NC(=O)N2CCN(CCN(Cc3ccc(F)cc3)C(=O)c3ccccc3C)CC2)cc1 | 0
29 | CCOC(=O)c1c(C)n(-c2ccccc2)c2ccc(OC(=O)c3ccccc3NC(=O)CC)cc12 | 2.78
30 | O=C1[C@@H]2CCCN2C(=O)C(c2ccc(Oc3ccccc3)cc2)N1CCc1ccccn1 (stereo partly drawn) | 2.74
31 | COc1ccc(OC)c(-c2ccc(O)c(CNC3CCCCC3)c2)c1 | 1.74
32 | COc1cc(C=NNC(=O)c2ccc(C(=O)NN=Cc3ccc(O)c(OC)c3)cc2)ccc1O | 7.14
33 | COc1ccccc1CNc1ncc(C(=O)NCCCN2CCCC2=O)c(NCCc2ccccc2)n1 | 1.94
34 | CCCCCCN(C(=O)c1ccc(CC)cc1)C(CC)c1nc2ccccc2c(=O)n1-c1cccc(Cl)c1 (stereo not drawn) | 1.89
35 | O=C1Nc2ccccc2C1=Nc1ccccc1NS(=O)(=O)c1ccc2ccccc2c1 | 7.69
36 | O=C(COC(c1ccccc1)c1cccnc1)NCCNC(=O)OCc1ccccc1 (stereo not drawn) | 0.909
37 | CCC(=O)N1CCc2cc(Br)cc(S(=O)(=O)N3CC(C)CC(C)C3)c21 (stereo not drawn) | 0
38 | COC(=O)C1=C(C)NC2=C(C(=O)CC(c3ccccc3)C2)C1c1cc(C)sc1SC (stereo not drawn) | 4.71
39 | CCN(CC)CCCN(Cc1cc2ccc(C)cc2[nH]c1=O)C(=S)Nc1cccc(Cl)c1 | 9.4
40 | COc1cccc(NC(=O)c2ccc(NCCCN3CC(C)CC(C)C3)c([N+](=O)[O-])c2)c1 (stereo not drawn) | 7.69
41 | c1ccc(-c2cc(NCCCN3CCOCC3)nc(-c3ccccn3)n2)nc1 | 15.4
42 | CCN1C(C(=O)c2ccccc2)=C(Nc2c(C)n(C)n(-c3ccccc3)c2=O)c2ccccc2S1(=O)=O | 0
43 | O=C(NCCCN1CCCC1=O)c1cnc(N2CCN(Cc3ccccc3)CC2)nc1NCCc1ccccc1 | 0.98
44 | Cc1cc(-c2cn[nH]c2C2CCCN(C(=O)Cc3ccccc3F)C2)on1 (stereo not drawn) | 0
45 | COc1ccc(OC)c(-c2ccc(O)c(CNCC(C)C)c2)c1 | 2.59
46 | CCOC(=O)c1sc2nc(N)c(C#N)c(-c3cccs3)c2c1N | 1.35
47 | O=C1NC(=S)N/C1=C\C=C\c1ccc([N+](=O)[O-])o1 | 10.6
48 | O=C(Cn1ccc(=NCc2ccccc2)cc1)c1ccc(Cl)cc1 | 4.41
49 | CN(C)c1ccc(-c2nc(-c3ccc(-c4[nH]c(-c5ccc(N(C)C)cc5)nc4-c4ccccc4)cc3)c(-c3ccccc3)[nH]2)cc1 | 12.5
50 | CCCc1c(C(=O)OCC)c2cc(O)ccc2n1-c1ccc(OC)cc1 | 6.25

Row | Compound | IFI [%]
51 | CC(=O)OC(OC(C)=O)C12C=CC(O1)C1C(=O)N(c3cccc(C)c3)C(=O)C12 (stereo not drawn) | 0
52 | CN1CCCN(C(=O)C2CC23CCN(Cc2ccc(N(C)c4ccccc4)cc2)CC3)CC1 (stereo not drawn) | 15.4
53 | O=C1CSc2nc3ccccc3n21 | 0
54 | CCOc1ccc2nc(C)cc(Nc3ccc(OC)cc3)c2c1 | 0
55 | COc1ccc(OC)c(-c2ccc(O)c(CN3CCC(c4ccccc4)CC3)c2)c1 | 1.72
56 | Cc1cc(C)c2c(c1)c(-c1ccccc1)c(-c1ccccc1)n2CC(O)Cn1cnc(-c2ccccc2)c1-c1ccccc1 (stereo not drawn) | 2.3
57 | FC(F)(F)c1ccccc1CN1CCc2nc(N3CCCCC3)sc2C1 | 9.86
58 | CC(C)CNCc1cc(-c2ccc(F)cc2)ccc1O | 0.98
59 | Oc1ccc(C=NN=C(Nc2ccccn2)c2ccccn2)c(O)c1 | 23.1
60 | CC1(C)CN=C(N2CCN(CC(O)COc3ccc(OCC(O)CN4CCN(C5=NCC(C)(C)S5)CC4)cc3)CC2)S1 (stereo not drawn) | 7.69
61 | c1ccc(Cc2cc[n+](Cc3ccccc3)cc2)cc1 | 0
62 | O=C1C(N2CCCCC2)=C(N2CCOCC2)C(=O)c2ccccc21 | 7.69
63 | CC(Nc1ccccc1)C(=O)Nc1cc(C(F)(F)F)ccc1Cl (stereo not drawn) | 7.5
64 | COc1ccc(CCNc2nc(NCCCN3CCCC3)ncc2C(=O)NCC(C)C)cc1OC | 0.952
65 | O=C(/C=C/c1ccccc1)c1c(-c2ccccc2)c2cc([N+](=O)[O-])ccc2[nH]c1=O | 7.14
66 | O=C(NC(c1ccccc1)c1ccc2cccnc2c1O)c1ccccc1 (stereo not drawn) | 7.69
67 | COC(=O)C1=C(C)NC2=C(C(=O)CC(c3ccc(OC)cc3)C2)C1c1ccc(F)cc1 (stereo not drawn) | 2.33
68 | CSc1cccc(NC(=O)C2C3C=CC4(O3)C2C(=O)N(Cc2ccc(F)cc2)C4C(=O)NC2CCCC(C)C2C)c1 (stereo not drawn) | 0
69 | CCCCN(CC)S(=O)(=O)c1cc(Br)cc2c1N(C(C)=O)CC2 | 0
70 | CCOc1ccc(NC(=O)NC(Cc2c[nH]c3ccccc23)C(=O)N2CCN(C(=O)NC(C)C)C(C)C2)cc1 (stereo not drawn) | 0.935
71 | Cc1ccc(C)c(Nc2nc(NCc3ccco3)c3ccccc3n2)c1 | 6.45
72 | O=C(O)CCNc1ccccc1[N+](=O)[O-] | 0
73 | CCN1CCCC1CNC(=O)CN1N=C(c2ccccc2)Cn2c(cc3ccccc32)C1=O (stereo not drawn) | 0
74 | CCCCN(C)Cc1cc(-c2cccc(OC)n2)ccc1O | 3.42
75 | Cc1ccc(O)c(NC(=O)c2cnn3c(C(F)(F)F)cc(-c4ccccc4)nc23)c1 | 0

Row | Compound | IFI [%]
76 | Cc1ccc(N2C3c4ccccc4N(S(=O)(=O)c4ccc(C)cc4)C2c2ccccc2N3S(=O)(=O)c2ccc(C)cc2)cc1 | 0
77 | CCN1C=CC(=Cc2ccc3ccccc3[n+]2C)C=C1 | 3.08
78 | O=C(Nc1ccc2c(c1)S(=O)(=O)c1cc(NC(=O)c3cccs3)ccc1-2)c1cccs1 | 3.79
79 | CCOC(=O)C1=C(C)NC2=C(C(=O)CC(c3ccc(OC)c(OC)c3)C2)C1c1ccccc1C (stereo not drawn) | 5.88
80 | O=C1c2ccccc2C(=O)C12C(c1ccc(Br)cc1)N(c1ccccc1)C1(C(=O)c3ccccc3C1=O)C2c1ccc(Br)cc1 (stereo not drawn) | 0
81 | C[n+]1c2ccccc2nc2ccc(NC3CCCCC3N)cc21 (stereo not drawn) | 23.1
82 | O=C(NCc1ccccc1)c1cnc(NCCCn2ccnc2)nc1NC1CCCC1 | 0.971
83 | OC(CNCC1COc2ccccc2O1)c1ccccc1 (stereo not drawn) | 1.5
84 | N#Cc1c2c(c(N3CCN(CCO)CC3)n3c1nc1ccccc13)CCC2 | 2.33
85 | CN(CCCNc1ccnc2cc(Cl)ccc12)C(=O)C(C)(C)C | 1.87
86 | CC(C)CN1C(=O)c2ccccc2C(C(=O)Nc2cc(F)ccc2F)C1c1cccs1 (stereo not drawn) | 6.45
87 | CC(=O)N(C1=C(N(C)C)C(=O)c2ccccc2C1=O)c1ccc(F)cc1 | 31.1
88 | CCOc1cc(C(Nc2cc(C)ccn2)c2ccc3cccnc3c2O)ccc1OCc1ccccc1 (stereo not drawn) | 7.14
89 | CCN(CC)c1ccc2c(c1)OC(N)=C(C#N)C2c1ccsc1 (stereo not drawn) | 9.09
90 | Cc1ccc(NC(=S)NCCO)cc1C | 3.03
91 | CC(=O)Nc1ccc2c(c1)C(=O)N(C(C(=O)NCC(=O)O)C1CC1)[C@@H](CCC(=O)O)C(=O)N2 (stereo partly drawn) | 1.24
92 | CCOC(=O)c1cnc2cc(OCC(C)C)c(OCC(C)C)cc2c1O | 0.649
93 | COCC(=O)N(C)CCCNc1ccnc2cc(Cl)ccc12 | 0.935
94 | CCN1C(C)=C(C)S/C1=C\c1ccc2cc(C)ccc2[n+]1C | 11.4
95 | COc1ccccc1N1CCN(c2ccc(NC(=O)c3cccc(F)c3)cc2C(=O)N2CCCC2)CC1 | 0.917
96 | O=C(/C=C/c1ccc(-c2cccc([N+](=O)[O-])c2)o1)Nc1nccs1 | 0
97 | C[n+]1c(/C=C\c2ccc(F)cc2)ccc2ccccc21 | 3.49
98 | COC(=O)c1ccc(N(C(=O)Cc2c[nH]c3ccccc23)C(C(=O)NC2CCCCC2)c2ccccc2F)cc1 (stereo not drawn) | 5.46
